# “And” between values parts separate entries of the source, which are not always exact repeats. Equal entries are not always repeated. Inconclusive means that the source gave no clear call. Such entries were picked first, then a sample of the others. For part of these data: Potencies of inconclusive entries are doubtful fits and often do not repeat. The source made the active and inactive calls. Unless noted, calls follow the shape of the full dose curve.
# Columns and labels:
# [1] = target: Peroxisome proliferator-activated receptor gamma (Homo sapiens) (UniProt P37231); assay: qHTS assay to identify small molecule antagonists of the peroxisome proliferator-activated receptor gamma (PPARg) signaling pathway (AID 743191); settings: HEK293H PPARg-UAS-bla, beta-lactamase ratio, antagonist, 17 h; ratio activity, negative = inhibition: at 62.6 µM (top of the series) unless noted; also: nearly all actives have a fitted effect of over 30% in size; also: potency is read from the fitted curve at half-maximal effect; as to ratio activity, negative = inhibition: % is scaled to controls: 0 for no effect and ±100 for the full control effect
# Sequence of UniProt P37231 (P37231 whole entry, looked up): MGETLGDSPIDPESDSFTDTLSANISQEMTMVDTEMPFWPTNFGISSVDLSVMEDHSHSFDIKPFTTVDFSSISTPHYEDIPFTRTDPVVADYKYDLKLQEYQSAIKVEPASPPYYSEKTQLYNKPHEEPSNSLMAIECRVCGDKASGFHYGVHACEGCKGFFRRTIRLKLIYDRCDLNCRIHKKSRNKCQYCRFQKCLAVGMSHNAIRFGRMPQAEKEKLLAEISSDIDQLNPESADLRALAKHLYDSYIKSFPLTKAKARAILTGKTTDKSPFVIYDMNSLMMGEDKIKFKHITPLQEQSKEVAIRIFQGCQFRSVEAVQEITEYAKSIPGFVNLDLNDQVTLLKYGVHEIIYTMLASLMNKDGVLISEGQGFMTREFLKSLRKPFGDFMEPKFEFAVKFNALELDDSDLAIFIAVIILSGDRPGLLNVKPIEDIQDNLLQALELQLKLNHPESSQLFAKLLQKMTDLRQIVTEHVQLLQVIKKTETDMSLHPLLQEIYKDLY
# Summary of the method: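 GeneBLAzer PPARg UAS-bla HEK293H cells carrying a UAS-driven beta-lactamase reporter were plated at 3000 cells/well, preincubated 5 h at 37C, then given compound for 17 h at 37C; LiveBLAzer B/G FRET substrate was read after 1 h at room temperature.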
# [2] = qHTS assay to identify small molecule antagonists of the peroxisome proliferator-activated receptor gamma (PPARg) signaling pathway - cell viability counter screen (AID 743194; active = well fitted curve in the direction sought with a large enough effect in the repeat runs; inconclusive = weak or mixed curves; inactive = no such curve, though single readings can be large; an effect the other way counts as inactive or inconclusive; also: nearly all actives have a fitted effect of over 55% in size; also: potency is read from the fitted curve at half-maximal effect; as to activity change, negative = cytotoxicity: % is scaled to controls: 0 for no effect and ±100 for the full control effect); settings: PPARg-bla HEK293H viability, CellTiter-Glo luminescence, 17 h, co-treated with 50 nM rosiglitazone; activity change, negative = cytotoxicity: at 62.6 µM (top of the series) unless noted
# Summary of the method: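 PPARg-UAS-bla HEK293H cells were plated, rested 5 h at 37 C, then treated with compounds plus rosiglitazone (50 nM final) for 17 h at 37 C; viability was then read by CellTiter-Glo luminescence after 30 min at room temperature.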
# [3] = qHTS assay for small molecule agonists of the antioxidant response element (ARE) signaling pathway (AID 743202; active = well fitted activation curve with a large enough effect in the signal ratio in the repeat runs, not every such curve was filed as active; inconclusive = weak or mixed curves, or effect the other way; inactive = no such curve, though single readings can be large or run the other way; the % refers to the signal ratio; also: potency is read from the fitted curve at half-maximal effect); settings: HepG2 ARE-bla reporter, beta-lactamase FRET, 16 h
# Summary of the method: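 Read-out: LiveBLAzer B/G FRET substrate fluorescence after 2 h at room temperature, following 16 h compound treatment at 37 C of HepG2 cells carrying an ARE-driven beta-lactamase reporter.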
# [4] = qHTS assay to identify small molecule agonists of the farnesoid-X-receptor (FXR) signaling pathway - cell viability counter screen (AID 743218; active = well fitted curve in the direction sought with a large enough effect in the repeat runs; inconclusive = weak or mixed curves; inactive = no such curve, though single readings can be large; an effect the other way counts as inactive or inconclusive; also: potency is read from the fitted curve at half-maximal effect; nearly all actives have a fitted effect of over 45% in size); settings: FXR-bla HEK293T viability, CellTiter-Glo luminescence, 16 h; viability change, negative = cytotoxic: at 62.6 µM (top of the series) unless noted
# Summary of the method: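 Cytotoxicity counter-screen run in parallel, same wells: FXR-UAS-bla HEK 293T cells dosed 16 h at 37 C, viability read by CellTiter-Glo luminescence after 30 min at room temperature.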
# [5] = target: Vitamin D3 receptor (Homo sapiens) (UniProt P11473); assay: qHTS assay to identify small molecule agonists of the vitamin D receptor (VDR) signaling pathway (AID 743222); settings: HEK293T VDR-UAS-bla, beta-lactamase FRET ratio, 16 h; activation: at 63.5 µM (top of the series) unless noted; also: potency is read from the fitted curve at half-maximal effect; as to activation: % is scaled to controls: 0 for no effect and ±100 for the full control effect
# Sequence of UniProt P11473 (P11473 whole entry, looked up): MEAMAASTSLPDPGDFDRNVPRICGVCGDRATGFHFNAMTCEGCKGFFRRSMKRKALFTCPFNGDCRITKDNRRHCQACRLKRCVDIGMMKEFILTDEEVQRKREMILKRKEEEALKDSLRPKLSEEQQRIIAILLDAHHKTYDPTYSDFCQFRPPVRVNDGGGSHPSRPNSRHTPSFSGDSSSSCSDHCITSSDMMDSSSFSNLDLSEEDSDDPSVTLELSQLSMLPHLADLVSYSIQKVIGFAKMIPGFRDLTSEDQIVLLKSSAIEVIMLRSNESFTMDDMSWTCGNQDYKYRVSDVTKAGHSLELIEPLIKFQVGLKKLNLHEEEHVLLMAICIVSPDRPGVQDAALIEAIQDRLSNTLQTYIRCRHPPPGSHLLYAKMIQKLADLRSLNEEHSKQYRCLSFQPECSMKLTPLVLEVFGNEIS
# Summary of the method: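 Quantitative HTS agonist-mode screen: compounds in DMSO were pin-transferred onto VDR-bla cells and incubated 16 h at 37C, 5% CO2. Reporter activity was detected with LiveBLAzer B/G FRET substrate after 2 h at room temperature.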
# [6] = target: Vitamin D3 receptor (Homo sapiens) (UniProt P11473); assay: qHTS assay to identify small molecule antagonists of the vitamin D receptor (VDR) signaling pathway (AID 743223; active = well fitted inhibition curve with a large enough effect in the signal ratio in the repeat runs, not every such curve was filed as active; inconclusive = weak or mixed curves, or effect the other way; inactive = no such curve, though single readings can be large or run the other way; the % refers to the signal ratio; also: potency is read from the fitted curve at half-maximal effect); settings: VDR-UAS-bla HEK293T, beta-lactamase FRET ratio, 16 h; activity change, negative = inhibition: at 61 µM (top of the series) unless noted
# Summary of the method: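 Quantitative HTS in VDR-bla reporter cells stimulated with 1alpha,25-dihydroxyvitamin D3, 3 nM final. Compound exposure 16 h, 37C, 5% CO2. Read-out: beta-lactamase FRET substrate fluorescence, 2 h RT.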
# [7] = qHTS assay for small molecule activators of the heat shock response signaling pathway (AID 743210; active = well fitted activation curve with a large enough effect in the signal ratio in the repeat runs, with a control signal flat, not every such curve was filed as active; inconclusive = weak or mixed curves; the % refers to the signal ratio; also: potency is read from the fitted curve at half-maximal effect); settings: HeLa HSE-bla reporter, beta-lactamase ratio, 5 h; activation: at 62.6 µM (top of the series) unless noted
# Summary of the method: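 HSE-bla HeLa cells (beta-lactamase reporter under heat shock response elements) were exposed to compounds for 5 h at 37 C, then loaded with LiveBLAzer B/G FRET substrate for 2.5 h at room temperature before fluorescence reading.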
# [8] = target: Peroxisome proliferator-activated receptor delta (Homo sapiens) (UniProt Q03181); assay: qHTS assay to identify small molecule agonists of the peroxisome proliferator-activated receptor delta (PPARd) signaling pathway (AID 743212); settings: HEK293H PPARd-UAS-bla, beta-lactamase FRET ratio, 17 h; activation: at 62.6 µM (top of the series) unless noted; also: potency is read from the fitted curve at half-maximal effect
# Sequence of UniProt Q03181 (Q03181 whole entry, looked up): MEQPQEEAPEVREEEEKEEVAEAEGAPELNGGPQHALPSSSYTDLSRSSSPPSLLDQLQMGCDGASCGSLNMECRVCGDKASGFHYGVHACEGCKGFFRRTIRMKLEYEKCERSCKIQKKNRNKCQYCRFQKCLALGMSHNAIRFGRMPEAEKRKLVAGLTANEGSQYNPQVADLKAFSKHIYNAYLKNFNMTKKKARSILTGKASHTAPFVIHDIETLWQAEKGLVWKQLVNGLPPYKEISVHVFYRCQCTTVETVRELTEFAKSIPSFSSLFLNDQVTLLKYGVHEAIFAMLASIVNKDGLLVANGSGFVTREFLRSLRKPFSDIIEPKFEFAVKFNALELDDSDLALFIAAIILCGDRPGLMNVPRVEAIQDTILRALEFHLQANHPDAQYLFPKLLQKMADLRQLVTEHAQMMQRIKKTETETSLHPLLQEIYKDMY
# Summary of the method: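 GeneBLAzer PPARd UAS-bla HEK293H cells (beta-lactamase reporter under UAS control), plated and rested 5 h at 37 C, then exposed to compounds in DMSO at 37 C; LiveBLAzer B/G FRET substrate added, 2 h room temperature, fluorescence read.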
# [9] = target: Bile acid receptor (Homo sapiens) (UniProt Q96RI1); assay: qHTS assay to identify small molecule antagonists of the farnesoid-X-receptor (FXR) signaling pathway (AID 743217; active = well fitted inhibition curve with a large enough effect in the signal ratio in the repeat runs, not every such curve was filed as active; inconclusive = weak or mixed curves, or effect the other way; inactive = no such curve, though single readings can be large or run the other way; the % refers to the signal ratio; also: % is scaled to controls: 0 for no effect and ±100 for the full control effect); settings: HEK293T FXR-UAS-bla, beta-lactamase ratio, CDCA-stimulated, 16 h; activity change, negative = inhibition: at 62.6 µM (top of the series) unless noted
# Sequence of UniProt Q96RI1 (Q96RI1 whole entry, looked up): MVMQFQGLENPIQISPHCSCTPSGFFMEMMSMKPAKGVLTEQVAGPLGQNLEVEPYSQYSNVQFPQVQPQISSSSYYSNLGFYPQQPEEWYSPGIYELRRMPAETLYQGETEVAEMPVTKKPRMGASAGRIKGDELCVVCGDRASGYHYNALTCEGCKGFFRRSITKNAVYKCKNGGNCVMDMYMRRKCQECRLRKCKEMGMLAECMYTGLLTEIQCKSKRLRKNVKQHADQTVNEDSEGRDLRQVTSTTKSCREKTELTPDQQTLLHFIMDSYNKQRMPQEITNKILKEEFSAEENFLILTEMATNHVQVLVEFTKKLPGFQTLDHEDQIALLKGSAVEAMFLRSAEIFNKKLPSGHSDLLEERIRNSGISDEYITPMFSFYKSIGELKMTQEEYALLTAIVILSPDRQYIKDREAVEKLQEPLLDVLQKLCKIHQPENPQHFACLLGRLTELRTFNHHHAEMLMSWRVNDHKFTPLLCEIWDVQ
# Summary of the method: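 Antagonist mode against 50 uM (final) chenodeoxycholic acid stimulation in FXR-bla HEK 293T cells, 16 h at 37 °C. Inhibition detected as reduced beta-lactamase activity via LiveBLAzer B/G FRET fluorescence after 2 h at room temperature.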
# [10] = qHTS assay to identify small molecule antagonists of the peroxisome proliferator-activated receptor delta (PPARd) signaling pathway - cell viability counter screen (AID 743213; active = well fitted curve in the direction sought with a large enough effect in the repeat runs; inconclusive = weak or mixed curves; inactive = no such curve, though single readings can be large; an effect the other way counts as inactive or inconclusive; also: nearly all actives have a fitted effect of over 50% in size; also: potency is read from the fitted curve at half-maximal effect); settings: PPARd-bla HEK293H viability, CellTiter-Glo luminescence, 17 h; viability change, negative = cytotoxic: at 62 µM (top of the series) unless noted
# Summary of the method: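 Same-well viability: cells pre-incubated 5 h, dosed with compound plus 300 nM L165041, kept 17 h at 37 C, FRET substrate 2 h RT, then CellTiter-Glo 30 min RT and luminescence.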
# [11] = target: Peroxisome proliferator-activated receptor delta (Homo sapiens) (UniProt Q03181); assay: qHTS assay to identify small molecule antagonists of the peroxisome proliferator-activated receptor delta (PPARd) signaling pathway (AID 743215; active = well fitted inhibition curve with a large enough effect in the signal ratio in the repeat runs, not every such curve was filed as active; inconclusive = weak or mixed curves, or effect the other way; inactive = no such curve, though single readings can be large or run the other way; the % refers to the signal ratio;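 also: cells stimulated with agonist L165041 at 300 nM final during compound exposure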; also: potency is read from the fitted curve at half-maximal effect); settings: HEK293H PPARd-UAS-bla, beta-lactamase FRET ratio, antagonist, 17 h; ratio activity, negative = inhibition: at 62 µM (top of the series) unless noted
# Summary of the method: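 Inhibition of L165041-driven (300 nM final) PPARd signaling is scored in HEK293H UAS-bla cells. Exposure lasts 17 h at 37 C; beta-lactamase activity is then read by FRET substrate fluorescence after 2 h at room temperature.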
# [12] = qHTS assay to identify small molecule antagonists of the farnesoid-X-receptor (FXR) signaling pathway - cell viability counter screen (AID 743221; active = well fitted cell-killing curve with a large enough effect in the repeat runs, not every such curve was filed as active; inconclusive = weak or mixed curves, or effect the other way; inactive = no such curve, though single readings can be large or run the other way; also: potency is read from the fitted curve at half-maximal effect; nearly all actives have a fitted effect of over 50% in size); settings: FXR-bla HEK293T viability, CellTiter-Glo luminescence, 16 h; activity change, negative = cytotoxicity: at 62.6 µM (top of the series) unless noted
# Summary of the method: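 Cytotoxicity is taken from ATP luminescence (CellTiter-Glo, 30 min, room temperature) in FXR-bla HEK 293T cells previously incubated 16 h at 37 C with compound and chenodeoxycholic acid at 50 uM final.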
# [13] = qHTS assay to identify small molecule agonists of the peroxisome proliferator-activated receptor delta (PPARd) signaling pathway - cell viability counter screen (AID 743211; active = well fitted curve in the direction sought with a large enough effect in the repeat runs; inconclusive = weak or mixed curves; inactive = no such curve, though single readings can be large; an effect the other way counts as inactive or inconclusive; also: nearly all actives have a fitted effect of over 55% in size; also: potency is read from the fitted curve at half-maximal effect); settings: PPARd-bla HEK293H viability, CellTiter-Glo luminescence, 17 h; activity change, negative = cytotoxicity: at 62.6 µM (top of the series) unless noted
# Summary of the method: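 Tox21 library compounds, delivered in DMSO, were incubated 17 h with PPARd-bla HEK293H cells; cytotoxicity was taken from CellTiter-Glo luminescence read 30 min after reagent addition.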
# [14] = qHTS assay to identify small molecule agonists of the vitamin D receptor (VDR) signaling pathway - cell viability counter screen (AID 743224; active = well fitted curve in the direction sought with a large enough effect in the repeat runs; inconclusive = weak or mixed curves; inactive = no such curve, though single readings can be large; an effect the other way counts as inactive or inconclusive; also: potency is read from the fitted curve at half-maximal effect; nearly all actives have a fitted effect of over 50% in size); settings: VDR-bla HEK293T viability, CellTiter-Glo luminescence, 16 h; activity change, negative = cytotoxicity: at 62.6 µM (top of the series)
# Summary of the method: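 Viability is measured in the same wells as the VDR-bla reporter assay: after 16 h compound treatment and 2 h substrate loading, CellTiter-Glo is added and luminescence read 30 min later.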
# [15] = qHTS assay for small molecule activators of the heat shock response signaling pathway - cell viability counter screen (AID 743209; active = well fitted curve in the direction sought with a large enough effect in the repeat runs; inconclusive = weak or mixed curves; inactive = no such curve, though single readings can be large; an effect the other way counts as inactive or inconclusive; also: nearly all actives have a fitted effect of over 50% in size; also: potency is read from the fitted curve at half-maximal effect); settings: HSE-bla HeLa viability, CellTiter-Glo luminescence, 5 h; activity change, negative = cytotoxicity: at 62.6 µM (top of the series) unless noted
# Summary of the method: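 First, HSE-bla HeLa cells were seeded at 1500 cells/well and kept overnight at 37 C. Next, compounds were pinned in and incubated 5 h. After the FRET substrate step, CellTiter-Glo was added and luminescence read 30 min later.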
# [16] = qHTS assay for small molecule agonists of the antioxidant response element (ARE) signaling pathway - cell viability counter screen (AID 743203); settings: ARE-bla HepG2 viability, CellTiter-Glo luminescence, 16 h; viability change, negative = cytotoxic: at 73.3 µM (top of the series); also: potency is read from the fitted curve at half-maximal effect; nearly all actives have a fitted effect of over 55% in size
# Summary of the method: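 Seeded at 2,000 cells/well, ARE-bla HepG2 cells were incubated 5 hrs before compound addition. After 16 hrs of treatment at 37C with 5% CO2, CellTiter-Glo reagent was added and luminescence read 30 min later.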
# [17] = activation: at 73.3 µM (top of the series) unless noted
# Tags tell the direction and shape of the fitted curve or compound fluorescence and quenching.
smiles,measurement,setting,value
COC(=O)CCCCC(=O)OC,Potency,[1],inactive
same,Potency,[2],inactive
same,Potency,[3]; [17],inconclusive: 61.5 µM
same,Potency,[4],"inconclusive: 439 nM [rising, full curve, poor fit]"
same,activation,[5],inconclusive: 9.18%
same,Potency,[6],inactive
COC(=O)C1CCC(C(=O)OC)CC1 (stereo not given),"ratio activity, negative = inhibition",[1],inconclusive: -2.96% [at 81.1 µM]
same,Potency,[2],"inconclusive: 7.86 µM [rising, partial curve, poor fit]"
same,Potency,[3]; [17],"inconclusive: 27.3 µM [rising, single point]"
same,activation,[3]; at 73.3 µM (top of the series),inconclusive: -3.07%
same,activation,[3]; at 94.8 µM (top of the series),inconclusive: 10.9%
same,Potency,[7],inactive
same,Potency,[8],inactive
same,"activity change, negative = inhibition",[9],inconclusive: 10.5%
same,Potency,[6],inactive
CN1CCCC(n2nc(Cc3ccc(Cl)cc3)c3ccccc3c2=O)CC1 (stereo not given),"ratio activity, negative = inhibition",[1],inconclusive: 9.91%
same,Potency,[2],"inconclusive: 33.5 µM [cytotoxic, partial curve, poor fit]"
same,Potency,[3]; [17],"inconclusive: 29.8 µM [rising, partial curve, poor fit]"
same,Potency,[8],"inconclusive: 26.6 µM [rising, partial curve, poor fit]"
same,Potency,[10],"inconclusive: 10600 nM [cytotoxic, partial curve]"
same,Potency,[11],inactive
same,Potency,[4],active: 21100 nM
same,Potency,[12],"inconclusive: 13.3 µM [falling, partial curve, poor fit]"
Oc1ccc(Cl)c2cccnc12,Potency,[1],inconclusive: 29.8 µM [activator]
same,Potency,[2],"inconclusive: 33.5 µM [cytotoxic, single point]"
same,Potency,[3]; [17],active: 23.7 µM
same,Potency,[13],active: 0.596 µM
same,Potency,[8],"inconclusive: 0.376 µM [rising, full curve]"
same,Potency,[10],"inconclusive: 596 nM [cytotoxic, full curve]"
same,Potency,[11],active: 1.06 µM
same,"activity change, negative = inhibition",[9],inconclusive: -35.1%
same,Potency,[5],inconclusive: 0.376 µM [full curve]
same,"activity change, negative = inhibition",[6],inconclusive: -26.6%
same,Potency,[14],active: 0.376 µM
CN(c1nccc(=O)[nH]1)C1CCN(c2nc3ccccc3n2Cc2ccc(F)cc2)CC1,"ratio activity, negative = inhibition",[1],inconclusive: 3.39%
same,Potency,[3]; [17],"inconclusive: 29.8 µM [rising, partial curve, poor fit]"
same,Potency,[15],inactive
same,Potency,[13],"inconclusive: 33.5 µM [cytotoxic, partial curve, poor fit]"
same,Potency,[5],inactive
same,Potency,[6],inconclusive: 10.7 µM [activator]
C#CCN(C)Cc1ccccc1,Potency,[1],inactive
same,activation,[3]; [17],inconclusive: -3.45%
same,activation,[3]; at 73.3 µM (top of the series),inactive: -12.1%
same,Potency,[13],inactive
same,Potency,[10],"inconclusive: 298 nM [cytotoxic, single point]"
same,Potency,[4],"inconclusive: 275 nM [rising, partial curve, poor fit]"
CCCCOC(=O)C(C)O (stereo not given),Potency,[1],inactive
same,Potency,[2],"inconclusive: 0.245 µM [cytotoxic, full curve, poor fit]"
same,Potency,[9],inactive
O=C(CCN1CCC(c2ccccc2)C1)c1ccc2c(c1)OCCO2 (stereo not given),Potency,[1],"inconclusive: 33.5 µM [rising, partial curve, poor fit]"
same,Potency,[3]; [17],"inconclusive: 33.5 µM [rising, single point]"
same,Potency,[15],active: 13.3 µM
same,Potency,[7],inconclusive: 23.7 µM
same,Potency,[6],inconclusive: 23.9 µM
same,Potency,[14],"inconclusive: 33.5 µM [cytotoxic, single point]"
CC1Cc2ccccc2N1NC(=O)c1ccc(Cl)c(S(N)(=O)=O)c1 (stereo not given),"ratio activity, negative = inhibition",[1],inconclusive: -12.3%
same,activation,[3]; [17],inconclusive: -5.78%
same,activation,[3]; at 73.3 µM (top of the series),inactive: 10.9%
O=C1c2c(O)cccc2Cc2cccc(O)c21,Potency,[1],"inconclusive: 13.3 µM [falling, partial curve, poor fit]"
same,activation,[3]; [17],inconclusive: -16.5% and inconclusive: -16.1%
same,Potency,[16],"inconclusive: 15 nM [rising, full curve, poor fit]"
same,Potency,[15],"inconclusive: 0.153 µM [cytotoxic, full curve, poor fit]"
CCCCCCCCCCCCSC#N,Potency,[1],inactive
same,Potency,[3]; [17],inactive
same,Potency,[7],inconclusive: 61.6 µM [activator]
same,Potency,[5],inactive
COC(=O)c1ccccc1,"ratio activity, negative = inhibition",[1],inconclusive: -11.2%
same,Potency,[2],"inconclusive: 43.6 µM [cytotoxic, partial curve]"
same,Potency,[4],"inconclusive: 15.3 nM [cytotoxic, full curve, poor fit]"
C=C(C)C(=O)OCC[N+](C)(C)C,Potency,[1],active: 2.18 µM
same,activation,[3]; [17],inconclusive: 22.2%
same,Potency,[15],inactive
same,Potency,[10],inactive
same,"ratio activity, negative = inhibition",[11],inconclusive: 4.57%
same,Potency,[5],"inconclusive: 61.4 µM [fluorescent, single point]"
